{"source": "PubChem BioAssay AID445", "about": "(National Center for Advancing Translational Sciences (NCATS), 2006)", "note": "The campaign covered roughly 110,000 compounds. About 40 (0.04%) were called active. This list was built around the results that the source calls inconclusive (neither active nor inactive); the mix of calls is not that of the screen. Calls come from the whole dose curve; as a rule, active = well fitted curve in the direction sought with a large enough effect in the signal ratio (not every such curve was filed as active); inconclusive = small, poorly fitted or top-dose-only effect, or a change in a side signal; inactive = flat fitted curve, though single readings scatter; the % refers to the signal ratio. Potencies of inconclusive entries are doubtful fits and often do not repeat. Potency is the fitted concentration of half-maximal effect."}
{"assay": "IkB Signaling;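 for IkBa stabilization activation: 0% = basal untreated cells and 100% = reference inhibitor full response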", "conditions": "ABC-DLBCL IkBa-CBG/CBR dual luciferase ratio (green luciferase fused to IkBa over red control in OCI-Ly3 lymphoma cells), 4 h; IkBa stabilization activation: at 57.1 µM (top of the series), scaled: untreated 0%, proteasome inhibitor 100% unless noted", "in_short": "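In this assay, an IκBα–CBG68 fusion accumulates when IKK-driven degradation is blocked; native CBR normalizes for cell number. OCI-Ly3 cells were treated 4 h with compound and doxycycline, then green and red light read after Chroma-Glo addition.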"}
{"molecule": "Cc1nc(N=Nc2cc(S(=O)(=O)O)ccc2S(=O)(=O)O)c(COP(=O)(O)O)c(C=O)c1O", "IkBa stabilization activation": "inactive"}
{"molecule": "Cc1ccccc1-c1nc(SCC(=O)NCC2CCCO2)c2c(=O)n(C)c(=O)n(C)c2n1", "note": "(centres undefined)", "IkBa stabilization activation": "inconclusive: -1.1% [signal inhibitor]"}
{"molecule": "NC(=O)c1c(NC(=O)c2cccs2)sc2c1CCCCCC2", "IkBa stabilization activation": "inactive"}
{"molecule": "COc1ccccc1C(=O)Nc1ccccn1", "IkBa stabilization activation": "inactive"}
{"molecule": "COCCNC(=O)c1ccc2c(=O)n(CCOC)c(SCC(=O)c3c[nH]c4ccccc34)nc2c1", "IkBa stabilization activation": "inconclusive: 15.7% [signal inhibitor]"}
{"molecule": "Cc1cccc(CCNC(=O)CCc2c(C)nc3ncnn3c2C)c1", "IkBa stabilization activation": "inconclusive: 8.16% [signal inhibitor]"}
{"molecule": "CCCN(CCC)CCNC(=O)c1cc2c(=O)n(C)c3ccccc3c2n1C", "IkBa stabilization activation": "inactive"}
{"molecule": "O=C(c1ccco1)N1CCN(CC(O)COc2ccc3oc4ccccc4c3c2)CC1", "note": "(centres undefined)", "IkBa stabilization activation": "inconclusive: 1.01% [signal inhibitor]"}
{"molecule": "OC(CN1CCN(c2ccccc2)CC1)c1c[nH]c2ccccc12", "note": "(centres undefined)", "IkBa stabilization activation": "inconclusive: 11.4% [signal inhibitor]"}
{"molecule": "CCCc1cc(=O)oc2cc(C)c3c(C(C)(C)C)coc3c12", "IkBa stabilization activation": "inactive"}
{"molecule": "COc1ccc(-n2nnnc2SCC(=O)Nc2ccc3c(c2)OCCO3)c(OC)c1", "IkBa stabilization activation": "inconclusive: 15.2% [signal inhibitor]"}
{"molecule": "O=S(=O)(NCc1ccccn1)c1cccc2cccnc12", "IkBa stabilization activation": "inactive"}
{"molecule": "COc1cccc(NC(=O)c2ccc3[nH]c(C)cc(=O)c3c2)c1", "IkBa stabilization activation": "inconclusive: -2.2% [signal inhibitor]"}
{"molecule": "O=C(Nc1ccccc1)c1cccc(N2C(=O)CCC2=O)c1", "IkBa stabilization activation": "inactive"}
{"molecule": "COC(=O)c1ccc(Cn2nc(-c3ccc(C)cc3)ccc2=O)cc1", "IkBa stabilization activation": "inconclusive: 4.67% [signal inhibitor]"}
{"molecule": "Cn1c(SCc2ccccc2)nnc1-c1cccs1", "IkBa stabilization activation": "inconclusive: 12.6% [signal inhibitor]"}
{"molecule": "C=CCN(CC=C)CC(O)Cn1c2ccccc2c2ccccc21", "note": "(centres undefined)", "IkBa stabilization activation": "inconclusive: 3.72% [signal inhibitor]"}
{"molecule": "COCCNC(=O)c1ccc(-c2nc(CN3CCc4ccccc43)c(C)o2)cc1", "IkBa stabilization activation": "inactive"}
{"molecule": "O=C(NC1CCCCC1)NC1CCN(S(=O)(=O)Cc2ccccc2)CC1", "IkBa stabilization activation": "inactive"}
{"molecule": "CCCCNC(=O)Cn1cnc2sc(C)c(S(=O)(=O)N3CCN(c4ccccc4OC)CC3)c2c1=O", "IkBa stabilization activation": "inconclusive: -0.313% [signal inhibitor]"}
{"molecule": "Cc1csc2nc(COC(=O)c3ccc(NC(=O)C(C)C)cc3)cc(=O)n12", "IkBa stabilization activation": "inactive"}
{"molecule": "Cc1ccc(C)c2[nH]c(=O)c(CN(Cc3ccc4c(c3)OCO4)Cc3nnnn3Cc3ccco3)cc12", "IkBa stabilization activation": "inconclusive: 16.9% [signal inhibitor]"}
{"molecule": "CCOc1ccc2nc(NC(=O)c3ccccc3)sc2c1", "Potency": "inconclusive: 20 µM [signal inhibitor, partial curve]"}
{"molecule": "Cn1c(C(=O)OC(C(=O)NC2CCCCC2)c2ccncc2)cc2sccc21", "note": "(centres undefined)", "IkBa stabilization activation": "inactive"}
{"molecule": "CC1=CCC(COC(=O)Nc2ccccc2)CC1", "note": "(centres undefined)", "Potency": "inconclusive: 31.6 µM [signal inhibitor, partial curve]"}
{"molecule": "C=Cc1cccc(C)c1", "IkBa stabilization activation": "inactive"}
{"molecule": "CCOc1ccccc1C(=O)N(Cc1ccco1)Cc1ccccc1F", "IkBa stabilization activation": "inconclusive: -0.592% [signal inhibitor]"}
{"molecule": "Cc1ccc(C(=O)Nc2ccc(Br)cc2)cc1S(=O)(=O)NCc1ccccc1", "Potency": "inconclusive: 39.8 µM [signal inhibitor]"}
{"molecule": "COc1ccccc1Cn1c(SCC(=O)C(C)(C)C)nc2ccccc2c1=O", "IkBa stabilization activation": "inconclusive: 0.269% [signal inhibitor]"}
{"molecule": "CCOC(=O)c1c(C)oc2nc(C)nc(N3CCN(c4ccc(OC)cc4)CC3)c12", "IkBa stabilization activation": "inconclusive: 0.595% [signal inhibitor]"}
{"molecule": "CCNC(=O)C1CCN(Cc2cc3ccccc3n2Cc2ccc(C)cc2)CC1", "IkBa stabilization activation": "inconclusive: -0.47% [signal inhibitor]"}
{"molecule": "COC(=O)CN1C(C(=O)c2ccccc2)=C(OC(=O)c2ccc(C)cc2)c2ccccc2S1(=O)=O", "IkBa stabilization activation": "inconclusive: 3.37% [signal inhibitor]"}
{"molecule": "Cc1nn(-c2ccccc2)c2nc(N)c(C#N)c(-c3ccc(F)cc3)c12", "IkBa stabilization activation": "inconclusive: 0.597% [signal inhibitor]"}
{"molecule": "COCCn1c(=O)c(C)nc2cnc(OCc3ccccc3)nc21", "IkBa stabilization activation": "inactive: 1.87% [at 11.4 µM, scaled: untreated 0%, proteasome inhibitor 100%]"}
{"molecule": "COc1ccccc1-n1c(CNC(=O)COc2ccccc2)n[nH]c1=S", "IkBa stabilization activation": "inconclusive: 15.8% [signal inhibitor]"}
{"molecule": "Cc1oc(-c2cccc(Cl)c2)nc1CSCC(=O)NCc1ccccc1Cl", "IkBa stabilization activation": "inconclusive: 7.88% [signal inhibitor]"}
{"molecule": "COc1ccc(Cl)cc1C1CC(=O)Nc2cc3c(cc21)OCCO3", "note": "(centres undefined)", "Potency": "inconclusive: 25.1 µM [rising, partial curve]"}
{"molecule": "CCOc1ccccc1NC(=O)CCc1c(C)nc2c3cccnc3nn2c1C", "IkBa stabilization activation": "inconclusive: 1.02% [signal inhibitor]"}
{"molecule": "Cn1c(/C(C#N)=C(\\O)c2ccc(S(=O)(=O)N3CCCCC3)cc2)nc2ccccc21", "IkBa stabilization activation": "inactive"}
{"molecule": "O=C(NCc1ccc(F)cc1)c1ccc(CS(=O)(=O)Cc2ccccc2F)o1", "IkBa stabilization activation": "inconclusive: 3.39% [signal inhibitor]"}
{"molecule": "COc1ccc(C(=O)Nc2ccc(Cl)cn2)cc1Cl", "IkBa stabilization activation": "inconclusive: 4.5% [signal inhibitor]"}
{"molecule": "COc1cccc(C(=O)NCCc2csc(-c3cccc(F)c3)n2)c1OC", "IkBa stabilization activation": "inconclusive: 0.0723% [signal inhibitor]"}
{"molecule": "CCc1cccc(NC(=O)CN(c2ccc(C)cc2)S(=O)(=O)c2cccs2)c1", "IkBa stabilization activation": "inconclusive: -0.535% [signal inhibitor]"}
{"molecule": "Cc1csc(NC(=O)c2ccoc2C)n1", "IkBa stabilization activation": "inconclusive: 4.81% [signal inhibitor]"}
{"molecule": "O=c1c(N2CCCCC2)csc2ccc(F)cc12", "IkBa stabilization activation": "inactive"}
{"molecule": "COc1ccc(-c2nc3ccccc3s2)cc1NC(=O)COc1cccc(C)c1", "IkBa stabilization activation": "inactive"}
{"molecule": "Cn1c(=O)c2c(SC3CCCC3)nc(CC(C)(C)C)nc2n(C)c1=O", "IkBa stabilization activation": "inactive"}
{"molecule": "CCOC(=O)Cn1c(CN2CC(C)OC(C)C2)nc2c1c(=O)n(C)c(=O)n2C", "note": "(centres undefined)", "IkBa stabilization activation": "inactive"}
{"molecule": "CCOc1ccc(NC(=O)C(=O)NCCc2ccccc2)cc1", "IkBa stabilization activation": "inactive"}
{"molecule": "COc1c(C)cc(Br)cc1C(=O)Nc1cccc(-c2nc3ncccc3o2)c1", "IkBa stabilization activation": "inconclusive: 1.12% [signal inhibitor]"}
{"molecule": "O=C(Cn1c(=O)n(CCCS(=O)(=O)C2CCCCC2)c(=O)c2ccccc21)Nc1ccc(F)c(Cl)c1", "Potency": "inconclusive: 12.6 µM [signal inhibitor]"}
{"molecule": "CC(C)(C)n1nnnc1C(c1cccs1)N(Cc1ccccc1)Cc1ccco1", "note": "(centres undefined)", "IkBa stabilization activation": "inconclusive: 1.92% [signal inhibitor]"}
{"molecule": "COCCCNC(=O)c1nn(-c2ccc(C)cc2)c(=O)n(C)c1=O", "IkBa stabilization activation": "inactive"}
{"molecule": "O=C(c1cnc(N2CCCCC2)c2ccccc12)N1CCN(c2cccc(Cl)c2)CC1", "IkBa stabilization activation": "inconclusive: 2% [signal inhibitor]"}
{"molecule": "Cc1cc(C)cc(NC(=O)CCCn2c(=O)c3cccn3c3ccccc32)c1", "IkBa stabilization activation": "inconclusive: -0.0548% [signal inhibitor]"}
{"molecule": "CCOc1ccc(NC(=O)CC2C(=O)N(c3ccccc3)C(=O)N2Cc2cccc(OC)c2)cc1", "note": "(centres undefined)", "IkBa stabilization activation": "inactive"}
{"molecule": "O=C(COc1ccccc1[N+](=O)[O-])N1CCC(c2nc3ccccc3o2)CC1", "IkBa stabilization activation": "inconclusive: 4.91% [signal inhibitor]"}
{"molecule": "Cc1c(CC(=O)NCCc2ccccc2F)c(=O)oc2cc(O)c(Cl)cc12", "IkBa stabilization activation": "inconclusive: 2.71% [signal inhibitor]"}
{"molecule": "CCNc1ncc2nc(CCc3ccccc3)c(=O)n(C3CC3)c2n1", "IkBa stabilization activation": "inactive: -0.519% [at 11.4 µM, scaled: untreated 0%, proteasome inhibitor 100%]"}
{"molecule": "COCCn1nnnc1C(c1ccc(C)cc1)N1CCN(Cc2ccc3c(c2)OCO3)CC1", "note": "(centres undefined)", "IkBa stabilization activation": "inactive"}
{"molecule": "Cc1ccc(-n2ncc3c(N(CC(C)C)CC(C)C)ncnc32)c(C)c1", "IkBa stabilization activation": "inconclusive: -1.57% [signal inhibitor]"}
{"molecule": "COC(=O)c1[nH]c2cccc(OC)c2c1NC(=O)CN1CC2(C)CC1CC(C)(C)C2", "note": "(centres undefined)", "IkBa stabilization activation": "inconclusive: 5.89% [signal inhibitor]"}
{"molecule": "O=C(CN1CCC(n2nnc3ccccc32)CC1)NCc1cccs1", "IkBa stabilization activation": "inconclusive: 0.905% [signal inhibitor]"}
{"molecule": "Cc1ccc(S(=O)(=O)NC(=O)OC23COCN2COC3)cc1", "IkBa stabilization activation": "inactive: -0.295% [at 11.4 µM, scaled: untreated 0%, proteasome inhibitor 100%]"}
{"molecule": "Cc1cccc(NS(=O)(=O)c2cc(C(=O)OCC(=O)Nc3cc(C)on3)ccc2C)c1", "IkBa stabilization activation": "inconclusive: 6.82% [signal inhibitor]"}
{"molecule": "CC(C)S(=O)(=O)c1oc(-c2cccs2)nc1S(=O)(=O)c1ccc(F)cc1", "IkBa stabilization activation": "inconclusive: -2.86% [signal inhibitor]"}
{"molecule": "COC(=O)c1ccc2c(c1)N(Cc1nc(-c3cccc(C)c3)oc1C)C(=O)C1CCCN21", "note": "(centres undefined)", "IkBa stabilization activation": "inactive"}
{"molecule": "CCN(CCCNC(=O)c1cc(Nc2ccc(OC)cc2OC)nc2ccccc12)c1cccc(C)c1", "IkBa stabilization activation": "inconclusive: -1.47% [signal inhibitor]"}
{"molecule": "Cc1cccc2cc3c(N)c(C(=O)N4CCOCC4)sc3nc12", "IkBa stabilization activation": "inactive"}
{"molecule": "COc1cc2c(C#N)c(N3CCOCC3)nc(N)c2c(N)n1", "IkBa stabilization activation": "inactive"}
{"molecule": "COc1ccc(-c2coc3cc(O)ccc3c2=O)cc1", "IkBa stabilization activation": "inactive: 1.98% [at 11.4 µM, scaled: untreated 0%, proteasome inhibitor 100%]"}
{"molecule": "CCCC(=O)c1cc(O)c(O)cc1O", "IkBa stabilization activation": "inactive"}
{"molecule": "CCOc1cccc(NC(=O)C2CC(=O)N(C)C(=Nc3ccc(F)cc3)S2)c1", "note": "(centres undefined)", "IkBa stabilization activation": "inconclusive: 1.05% [signal inhibitor]"}
{"molecule": "O=C(CSc1nc2ccccc2[nH]1)Nc1ccc2c(c1)OCCO2", "IkBa stabilization activation": "inconclusive: 4.16% [signal inhibitor]"}
